The RNAGym collection of RNA variant scans (doi:10.1093/nar/gkz1192)
The source gives no read counts; variants with many changes may rest on few reads.

B1: CPEB3 Ribozyme (parent)
chain: UAACAGGGGGCCACAGCAGAAGCGUUCACGUCGCAGCCCCUGUCAGAUUCUGGUGAAUCUGCGAAUUCUGCUGUAUAUCUC

Variants of: B1
Assay: self-cleavage, relative activity (ratio to wild type); higher = more cleavage; in vitro, sequencing
Summary of the method: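 Barcoded CPEB3 ribozyme mutants, produced by rounds of error-prone PCR, self-cleaved while being transcribed with T7 RNA polymerase for 5 hours at 37°C and during a subsequent 15 min DNase I step before EDTA was added. Sequencing of template-switched cDNA on Illumina gave cleaved and total reads, and DNA sequencing assigned barcodes to variants. Each variant's relative activity is its cleaved/total read fraction divided by the unmutated ribozyme's fraction, averaged across three batches. A variant needed a minimum of 5 reads.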
In the case of G36A U67G A75G U78C, the self-cleavage is reported as 0.15. For A35U U48C G52A U69A, the self-cleavage was 0.08. In the case of A35U A64G U74G, the self-cleavage is reported as 0.69. Work on A35U C40A A65U U74A yielded a self-cleavage of 0.32. With A35U C38U U67C U78C the self-cleavage was 0.07. Variant A35U U41G A64U U67C U72C has a self-cleavage of 0.08. In the case of G36A U49A A64G, the self-cleavage is reported as 0.14. A35U U54A U69G gave a self-cleavage of 0.32. A35U U43A A64G A77U showed a self-cleavage of 0.59. A35G U54C A64G gave a self-cleavage of 1.39. With A35U U41A U48C A64G U72A G73A the self-cleavage was 0.12. A35U C40U A45G gave a self-cleavage of 0.33. A35G U49C U76C gave a self-cleavage of 0.95. With A35U C38U U51C U72A the self-cleavage was 0.15. A35U U51A U54C U60C U80C showed a self-cleavage of 0.3. A35U U49C U72C U78A gave a self-cleavage of 0.14. In the case of G36A U58A A77G, the self-cleavage is reported as 0.18. With G36A U54C U74C the self-cleavage was 0.42. In the case of A35U G36U U51G, the self-cleavage is reported as 0.09. Work on A35U U41A A75U yielded a self-cleavage of 0.23. For A35U U41C C62G, the self-cleavage was 0.15. Variant A35U A56G A64C has a self-cleavage of 0.15. For G36A A65U U66C, the self-cleavage was 0.13. For A35U U76A U78C, the self-cleavage was 0.93. For A35G U51A U78A, the self-cleavage was 1.31. With G36A U49A U72C the self-cleavage was 0.18. A35U U51C U72A gave a self-cleavage of 0.33. In the case of A35G U54C U60C U69A, the self-cleavage is reported as 0.49. For A35U C62A U74C, the self-cleavage was 0.2. G36A U43C A56G U78C gave a self-cleavage of 0.12. Work on A35U G36U C44U yielded a self-cleavage of 0.12. In the case of G36A A56G U60C U67C, the self-cleavage is reported as 0.11. With A35U U60C U67C U74A U80C the self-cleavage was 0.11. A35U G36A A56G U60A showed a self-cleavage of 0.07. With A35G U67A U80C the self-cleavage was 1.48. For A35U C39A A57C, the self-cleavage was 0.09. For A35G U60A A65G U80C, the self-cleavage was 0.82. A35U U41C U69A showed a self-cleavage of 0.2. A35U A57G U72G gave a self-cleavage of 0.29. A35U U41G G53C U54G A57G U74C gave a self-cleavage of 0.15. A35U A64U U69C U76A showed a self-cleavage of 0.1. For A35U C40U U67C U72C, the self-cleavage was 0.39. In the case of A35U U54C A56G, the self-cleavage is reported as 0.26. Variant A35U U43G C44U has a self-cleavage of 0.17. Variant A35U A45G U48C A57G U69A U72A has a self-cleavage of 0.04. A35U U41A U69A gave a self-cleavage of 0.49. In the case of A35U A47G U72C, the self-cleavage is reported as 0.62. In the case of A35U G52A U67A, the self-cleavage is reported as 0.09. A35U U54C U80A showed a self-cleavage of 0.7. For A35U U54C U80C, the self-cleavage was 0.66. A35U A45G A64G gave a self-cleavage of 0.22. With A35U C39U A56G U67A the self-cleavage was 0.09. For G36A U49A G52A, the self-cleavage was 0.25. A35U U49C U67A gave a self-cleavage of 0.34. A35U U49C U67C gave a self-cleavage of 0.07. Variant A35U U49C U51C U54C has a self-cleavage of 0.43. Work on A35U U41A G55A U78C yielded a self-cleavage of 0.14. For A35U G52A U60C, the self-cleavage was 0.11. For A35U U58G G61A U72A, the self-cleavage was 0.09. Work on A35G U60C U67C C68U U78C yielded a self-cleavage of 0. For A35U G55A U58C, the self-cleavage was 0.14. For A35U U41C A65G, the self-cleavage was 0.28. A35U A56G U66C gave a self-cleavage of 0.27. In the case of A35G U51C U54C A57G U58C G73A, the self-cleavage is reported as 0.72. A35U A57G U72A U76C showed a self-cleavage of 0.18. In the case of A35U U66A U74C, the self-cleavage is reported as 0.15. G36A G42A U43C C62G gave a self-cleavage of 0.11. With A35U A64G U66C G70C the self-cleavage was 0.1. With A35G U51C C62G A65G the self-cleavage was 0.7. Variant A35U A45U U69C U74C has a self-cleavage of 0.14. Variant A35U A57G C71U has a self-cleavage of 0.17. In the case of A35U U43C G70C, the self-cleavage is reported as 0.1. Work on A35U A65G U69A U76C yielded a self-cleavage of 0.12. Variant A35U U41A U76C has a self-cleavage of 0.53. Work on A35U G36U A47G U49C yielded a self-cleavage of 0.36. In the case of G36A U51C A56G, the self-cleavage is reported as 0.17. Work on A35U U58C U72A yielded a self-cleavage of 0.25. G36A U41C U48C U49C A75U U78A showed a self-cleavage of 0.08. Variant A35G U60C U78C has a self-cleavage of 1.03. Work on A35U A45U U60G yielded a self-cleavage of 0.45. In the case of A35G U49C U60A U74A, the self-cleavage is reported as 0.21. For A35U A57G U74C, the self-cleavage was 0.68. In the case of A35U U41A C59A A77U, the self-cleavage is reported as 0.22. With G36A A57G U72C the self-cleavage was 0.14. Variant A35U U49A C62U has a self-cleavage of 0.17. In the case of A35G U69A U80A, the self-cleavage is reported as 0.98. For A35U U49A A64U U72A U74C A77G, the self-cleavage was 0.1. With A35U A56G A57U the self-cleavage was 0.44. For A35U U51C U69A, the self-cleavage was 0.13. In the case of A35G U80C C81U, the self-cleavage is reported as 1.26. A35U U54C U58C gave a self-cleavage of 0.28. With A35U A65U U67A the self-cleavage was 0.13. A35G U51G U58C showed a self-cleavage of 1.07. Variant A35U A75U U80C has a self-cleavage of 0.55. A35U A45G U48C U67C U78A U80A showed a self-cleavage of 0.06. In the case of A35U A64G C68U U72C, the self-cleavage is reported as 0.08. A35U U58A U72A gave a self-cleavage of 0.13. Variant A35U C40U U41C U49A U80G has a self-cleavage of 0.22. For A35G U49C U72A, the self-cleavage was 0.67. With A35U U51C U67A A75G the self-cleavage was 0.09. With A35G U78C U80C the self-cleavage was 1.31. With A35U U51C A56C A65U the self-cleavage was 0.06. With A35U U49C G53A U80A the self-cleavage was 0.13. With A35U U41A U74C the self-cleavage was 0.17. With A35U U41G U51C A56U U69C U78C the self-cleavage was 0.09. For A35U G63C A65U U69A, the self-cleavage was 0.13. Variant A35U A56U U58G U66C has a self-cleavage of 0.04. For A35U U41C U48C, the self-cleavage was 0.43. With A35U U67C G73A the self-cleavage was 0.2. A35U A45G U48C U51C U58C U69A A77U gave a self-cleavage of 0.03. A35U U51C U78C gave a self-cleavage of 0.29. A35U U43C U67C showed a self-cleavage of 0.32. A35G U54C A64G U80A showed a self-cleavage of 1.28. With G36A U51A G55U A57G the self-cleavage was 0.14. Variant A35U A56G U60A G63U U72C has a self-cleavage of 0.17. In the case of G36A U41A U80C, the self-cleavage is reported as 0.08. With A35U A57G U78G the self-cleavage was 0.35. A35U A57G A64G U78C showed a self-cleavage of 0.12. With A35G U49C G52A the self-cleavage was 1.09. A35U U54A U78C showed a self-cleavage of 0.63. With A35U U49C U80A the self-cleavage was 0.11. Work on A35U U43A U58C yielded a self-cleavage of 0.14. With A35U U41G U49C U72C the self-cleavage was 0.06. Work on A35U U41A A77G yielded a self-cleavage of 0.19. Variant A35U C40U U69A has a self-cleavage of 0.4. Work on A35U U49A A64G yielded a self-cleavage of 0.14. For A35U U41A A47G U49C G61A U72C, the self-cleavage was 0.08. With A35U U41C U76A the self-cleavage was 0.52. With A35U A57U G63U A64G C71U the self-cleavage was 0.07. Variant A35G U72A U74C has a self-cleavage of 1.31. In the case of A35U U41A U43A U49C A64U, the self-cleavage is reported as 0.08. In the case of A35U A57G A65G, the self-cleavage is reported as 0.14. In the case of A35U A45U A57G A75G, the self-cleavage is reported as 0.11. Variant A35U U60C C71U has a self-cleavage of 0.14. With A35U U41C A47U A57G U78A the self-cleavage was 0.09. For A35U U41A A47G C71G, the self-cleavage was 0.1. In the case of A35U A45U C62A, the self-cleavage is reported as 0.14. For A35G U58A U72C, the self-cleavage was 0.98. A35U A56U U78C U80C gave a self-cleavage of 0.19. Variant A35G U54A U60G A65U C71A has a self-cleavage of 0.89. For A35G U54C A57G U66A, the self-cleavage was 1.12. A35U U48C A64C gave a self-cleavage of 0.16. With A35G U58C U69A the self-cleavage was 0.79. Work on A35U G36U U41C U78C yielded a self-cleavage of 0.17. With A35U U60A A64G U66C the self-cleavage was 0.14. Variant A35U A45G G63U has a self-cleavage of 0.38. A35G U58C C81U gave a self-cleavage of 1.17. Variant A35U U58C U69A U72C has a self-cleavage of 0.35. For A35U U41C U51A U58C, the self-cleavage was 0.2. Work on A35U U51A U60C U74C yielded a self-cleavage of 0.23. In the case of A35U U49A A56U U69A, the self-cleavage is reported as 0.2. Variant A35U C38U C44A U72C U78C has a self-cleavage of 0.16. In the case of A35U U43A U54A, the self-cleavage is reported as 0.36. With A35U C40A U43A U49C A56G U58C C62U the self-cleavage was 0.06. With A35G U72A U80C the self-cleavage was 1.22. Variant A35U A57G U80C has a self-cleavage of 0.71. A35G U66C U69A gave a self-cleavage of 0.71. Work on G36A U49C C50A U72C A77G yielded a self-cleavage of 0.17. Work on G36A U54C U69G C81A yielded a self-cleavage of 0.05. With A35U U43C U67C U72C the self-cleavage was 0.07. For A35U U49A G52A U74C, the self-cleavage was 0.66. A35U U69C C79U gave a self-cleavage of 0.23. Variant A35U U58C A64G G73A has a self-cleavage of 0.17. Variant A35U U41G A77G has a self-cleavage of 0.29. For A35G U49C U76C U78C, the self-cleavage was 1.09. With A35U A56U G73U U80G the self-cleavage was 0.45. Variant G36A U41C C44G G70A has a self-cleavage of 0.29.
